# Source: the supplement of paper PMC4166925
# ± gives the standard deviation of the averaged measurements. Over roughly 33,000 sequences, “E-score (dimensionless, -0.5 to 0.5)” has its median near -0.049; the highest 2% begin near 0.37. The list shows a part of the results.
# Test system: T1, PmTbr T-box DNA-binding domain (GST fusion)
# T1 sequence: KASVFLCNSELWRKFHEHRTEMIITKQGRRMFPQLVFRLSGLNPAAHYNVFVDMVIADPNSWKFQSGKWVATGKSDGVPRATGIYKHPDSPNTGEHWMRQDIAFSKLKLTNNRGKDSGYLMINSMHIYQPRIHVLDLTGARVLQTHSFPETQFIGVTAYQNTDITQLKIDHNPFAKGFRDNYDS
# Assay: PBM E-score of 8-mer (E-score (dimensionless, -0.5 to 0.5)); Tbr is Tbrain of the sea star Patiria miniata (Pm) or the sea urchin Strongylocentrotus purpuratus (Sp); higher = stronger binding preference; most listed sequences are background and not binding sites
# Settings: the construct has about 5 more residues each side
# In short: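 Each ungapped 8-mer received an enrichment E-score from the Universal PBM Analysis Suite, averaged over duplicate arrays. The proteins were Tbr T-box DNA-binding domains, covering the whole T-box plus about five flanking residues, fused to GST and expressed in BL21 E. coli at 20 °C before glutathione affinity purification. Universal Agilent oligonucleotide arrays were made double-stranded by primer extension and incubated with 200 nM protein in PBS (pH 7.5). The arrays were then scanned and quantified, and every 8-mer was scored from probe intensities.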
row,Sequence,PBM E-score of 8-mer
1,CCTGGTTA,-0.0818 ± 0.026
2,ACAAATTG,0.134 ± 0.051
3,TCTCAGCA,0.00945 ± 0.035
4,GTACGCGA,0.0245 ± 0.079
5,GCTATCAC,0.29 ± 0.0075
6,TGGCCACA,0.0314 ± 0.04
7,AGGGCGAT,0.0357 ± 0.024
8,CCATATCC,-0.195 ± 0.019
9,GCCTTCGC,0.279 ± 0.023
10,CGTGCGAA,0.448 ± 0.0091
11,CAAGGCAA,0.08 ± 0.018
12,GGTACGTA,-0.147 ± 0.02
13,ACCCAAAA,-0.1 ± 0.044
14,ACCCGGCG,-0.0053 ± 0.13
15,TATATACA,0.00231 ± 0.047
16,AGCAGACT,-0.0586 ± 0.019
17,CTATTTCC,-0.0822 ± 0.011
18,CAGACTGA,-0.257 ± 0.0036
19,ACATACGT,-0.00247 ± 0.033
20,CACACCCC,0.416 ± 0.013
21,AGGGGGTG,0.316 ± 0.027
22,ATAGGTCA,-0.2415 ± 0.00031
23,GAATTTAC,-0.203 ± 0.14
24,ACAATGAC,0.00371 ± 0.081
25,CGCCTGAA,-0.134 ± 0.018

row,Sequence,PBM E-score of 8-mer
1,ACAGGCTG,-0.0791 ± 0.025
2,GACAAGGC,0.101 ± 0.025
3,ACGGGAAA,-0.0104 ± 0.041
4,AATAACTG,0.0739 ± 0.043
5,GCTCGAGC,-0.197 ± 0.011
6,AAGGTAAA,0.102 ± 0.11
7,ACCATTAT,-0.104 ± 0.0073
8,CGCGTCGC,0.24 ± 0.019
9,TGACATAA,0.0301 ± 0.0037
10,AACAATCT,0.0378 ± 0.0048
11,TATTAACA,0.199 ± 0.085
12,AGAAGTGG,0.134 ± 0.0029
13,AATGCGAG,0.0459 ± 0.016
14,GCACCTAA,0.373 ± 0.016
15,AGTCGGTG,0.0028 ± 0.0072
16,CACGATGG,-0.0662 ± 0.041
17,ACGCGAAT,0.123 ± 0.046
18,GGACTAGA,-0.19 ± 0.028
19,AGATGACC,-0.231 ± 0.026
20,ATGAAGGC,-0.0339 ± 0.051
21,CTTAACCA,-0.141 ± 0.056
22,ACATGTAT,0.00304 ± 0.018
23,CGCAAGCA,0.0884 ± 0.027
24,CGCCCTCA,0.141 ± 0.01
25,TAAACGAA,-0.14 ± 0.03

row,Sequence,PBM E-score of 8-mer
1,ACCGCAGG,-0.0193 ± 0.015
2,AACTTCTT,-0.0804 ± 0.0058
3,AACATAGA,-0.199 ± 0.038
4,CATGTGAC,0.2823 ± 0.0013
5,GGACCCGA,0.161 ± 0.068
6,GTGACAAA,0.428 ± 0.029
7,TCGTGAAA,0.279 ± 0.018
8,TAAATACA,-0.0943 ± 0.0012
9,AACTCTCG,-0.128 ± 0.018
10,TGTGCTAA,0.346 ± 0.02
11,GGACTTTA,-0.193 ± 0.0087
12,AACCTTAG,-0.0923 ± 0.0088
13,CAGTTATG,-0.0798 ± 0.068
14,AGGCGTCG,0.353 ± 0.029
15,CCCCGCCA,0.124 ± 0.046
16,AGTATGCG,-0.0996 ± 0.096
17,GCACCCGA,0.15 ± 0.0018
18,AAATAATA,-0.0525 ± 0.045
19,AACGTGCT,0.1788 ± 0.00044
20,AGACTTAT,0.0325 ± 0.08
21,CGGCAGAC,-0.164 ± 0.07
22,ACCAACGG,0.108 ± 0.035
23,AGCGGTTG,0.0895 ± 0.017
24,AGCAGGGG,-0.0678 ± 0.061
25,ATGGTGCC,0.193 ± 0.051

row,Sequence,PBM E-score of 8-mer
1,CTGTGCTC,-0.168 ± 0.026
2,GAACTCAA,-0.229 ± 0.0061
3,GAAAGGGA,-0.177 ± 0.048
4,GCACTAAC,0.119 ± 0.047
5,AGCGGCTG,-0.138 ± 0.017
6,AATTCAGC,0.0267 ± 0.017
7,ATCCTGGC,-0.133 ± 0.079
8,AATTTTGT,-0.104 ± 0.14
9,AGCACGAC,-0.0584 ± 0.051
10,CACAGTCC,0.0117 ± 0.032
11,CCACTGTA,-0.029 ± 0.035
12,AATCGGAC,-0.121 ± 0.071
13,CAGCGGCA,0.0802 ± 0.04
14,AAGTCCAC,-0.0706 ± 0.012
15,GCGTATCA,-0.0253 ± 0.18
16,ACTGAGCG,0.0421 ± 0.036
17,GGCGTGAA,0.4668 ± 0.002
18,ACCAGTGA,-0.0342 ± 0.015
19,CTAGCCTC,-0.0732 ± 0.03
20,GAATTGAA,-0.283 ± 0.026
21,CGACTTGA,0.11 ± 0.011
22,CACACTAG,0.261 ± 0.048
23,ACGACGTG,0.244 ± 0.037
24,TGACAGCA,0.3043 ± 0.0026
25,GGCTACAA,-0.0179 ± 0.0065

row,Sequence,PBM E-score of 8-mer
1,ACGAATGA,-0.0786 ± 0.048
2,GCCTACCC,-0.0367 ± 0.028
3,ATCGGAAA,0.0591 ± 0.014
4,GTTCAAGA,-0.181 ± 0.098
5,ATGGAGCA,-0.186 ± 0.018
6,GCCCTACC,-0.194 ± 0.057
7,CCGCCGTC,-0.0956 ± 0.042
8,AACTCCTC,-0.1 ± 0.028
9,GCGGCATA,-0.202 ± 0.088
10,TACTTACA,0.0476 ± 0.0034
11,TAATGAAA,-0.00179 ± 0.032
12,CAGGCGAG,0.183 ± 0.017
13,AGGACATC,-0.0862 ± 0.062
14,ATGGTGGG,-0.245 ± 0.065
15,CGCGCAGA,0.112 ± 0.011
16,ACATAACG,0.191 ± 0.033
17,CCCCGTGC,-0.174 ± 0.04
18,CCTTTATA,-0.271 ± 0.017
19,CGCGTACC,0.0845 ± 0.065
20,TACGACAA,0.0864 ± 0.019
21,GTGCGAAC,0.4794 ± 0.0017
22,AGCCTTTA,-0.135 ± 0.049
23,ATCGCGGA,0.146 ± 0.0059
24,CTACAGTC,-0.0672 ± 0.021
25,ACCACTCC,0.0476 ± 0.03

row,Sequence,PBM E-score of 8-mer
1,ACAGGTAT,0.104 ± 0.021
2,AGAAGATG,-0.167 ± 0.034
3,CCATGTTC,-0.0843 ± 0.03
4,AGATCCGG,-0.12 ± 0.016
5,AAAAGAAT,-0.0614 ± 0.05
6,GACGCGAA,0.126 ± 0.066
7,ACGCACGT,0.103 ± 0.026
8,ACGATAGA,-0.228 ± 0.007
9,TCTAAAAA,-0.144 ± 0.029
10,ACCTTTTC,0.0667 ± 0.087
11,CTGCAGTA,0.0389 ± 0.03
12,GTTTGACA,0.3158 ± 0.0021
13,CCCGCCGC,-0.00498 ± 0.011
14,TGAAAGAA,-0.0648 ± 0.036
15,CGGGTAGA,-0.156 ± 0.035
16,AAGGGGAG,-0.162 ± 0.035
17,CATCACCA,0.164 ± 0.015
18,CCTCCACG,-0.0474 ± 0.043
19,ATTTGCGA,0.193 ± 0.022
20,ACCTCATG,0.155 ± 0.026
21,GCCGCAGC,-0.0955 ± 0.022
22,GGAGAATA,-0.192 ± 0.067
23,GTTTTAAA,-0.0173 ± 0.1
24,GCGGGTGA,0.277 ± 0.043
25,CAGAAGCG,0.103 ± 0.04

row,Sequence,PBM E-score of 8-mer
1,CGTGCGGC,-0.0454 ± 0.0043
2,ACCGTAGC,-0.167 ± 0.027
3,GTGTCCAA,0.141 ± 0.0086
4,GTAATTAC,-0.0135 ± 0.077
5,TAGTTGCA,-0.187 ± 0.033
6,GATATTTA,-0.0613 ± 0.0032
7,CGTCAACC,0.112 ± 0.052
8,CAGGGAGG,-0.105 ± 0.026
9,CCACGACA,0.186 ± 0.055
10,CTGTTATC,0.128 ± 0.019
11,ACGCTGGA,0.0314 ± 0.029
12,CCACTACG,-0.143 ± 0.032
13,GGTGGGCA,0.0512 ± 0.038
14,AAACGTCA,-0.0875 ± 0.0045
15,ATTCGGTC,-0.1093 ± 0.00075
16,GAGACAGA,-0.192 ± 0.02
17,CAACGCGA,0.152 ± 0.07
18,ACGGACGC,0.0949 ± 0.049
19,ACCGCGCA,-0.043 ± 0.043
20,GAACGAGA,-0.0969 ± 0.039
21,GTTGGCCA,-0.0304 ± 0.0051
22,TATGTAAA,-0.189 ± 0.015
